# Measurements reported in a collection of fitness landscapes (doi:10.1016/j.celrep.2020.107928).
# Whole data set: some 81,000 sequences, median “one-hybrid fitness for binding parS DNA” near -0.17, cut for the highest 2% near 0.51. This is one part of the list.
# B1: Caulobacter ParB omega fusion; a variant is named by its letters at X, in order, B8GW30 (parent)
# chain: MESVVVGEPGMSEGRRGLGRGLSALLGEVDAAPAQAPGEQLGGSREAPIEILQRNPDQPRRTFREEDLEDLSNSIREKGVLQPILVRPSPDTAGEYQIVAGERAWRAAQRAGLKTVPIMVRELDDLAVLEIGIIENVQRADLNVLEEALSYKVLMEKFERTQENIAQTIGKSXSHVANXMRLLXLPDEVQSYLVSGELTAXHARAIAAAADPVALAKQIIEGGLSVRETEALARKAPNLSAGKSKGGRPPRVKDTDTQALESDLSSVLGLDVSIDHRGSTGTLTITYATLEQLDDLCNRLTRGI
# Variants of: B1
# Assay: one-hybrid fitness for binding parS DNA (scaled: cognate 1, non-cognate 0); higher = stronger binding
# Conditions: with parS DNA site
# Method in brief: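 Selection: bacterial one-hybrid in E. coli USO, HIS3 reporter with the site 19 bp from the promoter, 48 hours at 37°C on M9-minus-histidine plus 0.1 mM IPTG and 5 mM 3-AT. Libraries were Caulobacter ParB with four randomised specificity codons, sequenced on Illumina before and after selection. Fitness is the rescaled log change in variant-to-wild-type read ratio, anchored to the cognate and non-cognate sites.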
row,Variant,one-hybrid fitness for binding parS DNA
1,GWDG,≤ 0.2
2,RAMW,≤ 0.2
3,AYPS,≤ 0.2
4,DSAC,≤ 0.2
5,PHCC,≤ 0.2
6,YRVL,≤ 0.2
7,RMCY,0.509
8,VELN,≤ 0.2
9,CPGV,≤ 0.2
10,IMRG,≤ 0.2
11,TENT,≤ 0.2
12,NDYG,≤ 0.2
13,RHNK,≤ 0.2
14,QAQK,≤ 0.2
15,FAFM,≤ 0.2
16,QAGY,≤ 0.2
17,PRGR,≤ 0.2
18,HKRR,≤ 0.2
19,DSDV,≤ 0.2
20,SYRT,≤ 0.2
21,HCGR,≤ 0.2
22,RVNF,0.205
23,PLMY,≤ 0.2
24,THST,≤ 0.2
25,ACKM,≤ 0.2

row,Variant,one-hybrid fitness for binding parS DNA
1,CTIW,≤ 0.2
2,LADR,≤ 0.2
3,LTIA,≤ 0.2
4,LKYL,≤ 0.2
5,PLQC,≤ 0.2
6,SGTT,≤ 0.2
7,PNVI,≤ 0.2
8,YHAS,≤ 0.2
9,QEYV,≤ 0.2
10,AMNE,≤ 0.2
11,SYFT,≤ 0.2
12,GATD,≤ 0.2
13,SDRN,≤ 0.2
14,RVKW,0.295
15,NFMG,≤ 0.2
16,LKAF,≤ 0.2
17,VTTL,≤ 0.2
18,RQRW,0.272
19,YYPG,≤ 0.2
20,QYTQ,≤ 0.2
21,MGNL,≤ 0.2
22,ISPT,≤ 0.2
23,RDEL,≤ 0.2
24,PRNC,≤ 0.2
25,CPFF,≤ 0.2

row,Variant,one-hybrid fitness for binding parS DNA
1,FNVC,≤ 0.2
2,RPNG,≤ 0.2
3,VPRA,≤ 0.2
4,GRFG,≤ 0.2
5,EPQC,≤ 0.2
6,YFVG,≤ 0.2
7,TDNL,≤ 0.2
8,QELM,≤ 0.2
9,SSEF,≤ 0.2
10,HWTA,≤ 0.2
11,QITM,≤ 0.2
12,RNFL,≤ 0.2
13,YTGA,≤ 0.2
14,PPHC,≤ 0.2
15,NCVC,≤ 0.2
16,RPYV,≤ 0.2
17,WPNL,≤ 0.2
18,EPAS,≤ 0.2
19,CMDY,≤ 0.2
20,ASSK,≤ 0.2
21,RYWV,≤ 0.2
22,IIKG,≤ 0.2
23,CCSR,≤ 0.2
24,HSVM,≤ 0.2
25,VMIG,≤ 0.2

row,Variant,one-hybrid fitness for binding parS DNA
1,PKYA,≤ 0.2
2,EADG,≤ 0.2
3,SWKG,≤ 0.2
4,DVAH,≤ 0.2
5,PIQF,≤ 0.2
6,WRHS,≤ 0.2
7,LANV,≤ 0.2
8,NSQN,≤ 0.2
9,RSDC,0.773
10,VFKC,≤ 0.2
11,PSKM,≤ 0.2
12,HDMN,≤ 0.2
13,QRYR,≤ 0.2
14,CRSD,≤ 0.2
15,FELR,≤ 0.2
16,LSKT,≤ 0.2
17,FRPS,≤ 0.2
18,YYSM,≤ 0.2
19,FIDS,≤ 0.2
20,QEIG,≤ 0.2
21,QDLI,≤ 0.2
22,ATNC,≤ 0.2
23,SNLC,≤ 0.2
